Laboratory results: PubChem BioAssay AID1346428 (National Center for Advancing Translational Sciences (NCATS), 2018)
About 1,200 (2.5%) of roughly 48,000 compounds were called active. Inconclusive results (about 2%) are left out.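 Rule for the calls: active = activation of at least 60% and not above a set upper limit (about 1 call in 100 departs from these limits); inconclusive = activation of 40% to 60%, or above that upper limit; inactive = activation under 40%.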 The list shows a part of the results.

molecular target: Probable G-protein coupled receptor 32 (Homo sapiens) (UniProt O75388); experiment: qHTS for Agonists of Human Resolvin D1 Receptor DRV1; details: CHO-K1 GPR32 beta-arrestin PathHunter luminescence, 90 min; at 76.9 µM; active compounds read high; zero percent set by DMSO-only wells; note: 0% is about no effect
Sequence of UniProt O75388 (O75388 whole entry, looked up): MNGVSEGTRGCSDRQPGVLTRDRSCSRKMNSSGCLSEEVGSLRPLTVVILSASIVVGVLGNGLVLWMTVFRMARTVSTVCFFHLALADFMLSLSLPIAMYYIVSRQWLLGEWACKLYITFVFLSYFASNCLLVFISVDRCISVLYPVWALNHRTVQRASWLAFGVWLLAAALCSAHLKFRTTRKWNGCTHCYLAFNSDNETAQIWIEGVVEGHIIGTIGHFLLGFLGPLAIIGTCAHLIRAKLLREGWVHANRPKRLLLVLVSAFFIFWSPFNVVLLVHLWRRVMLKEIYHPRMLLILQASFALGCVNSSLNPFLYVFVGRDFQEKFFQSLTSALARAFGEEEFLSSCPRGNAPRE
How it was run: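 Beta-arrestin recruitment read-out: luminescence from complemented beta-Gal in CHO-K1 GPR32 PathHunter cells, measured 1 h after detection reagent at ambient temperature following 90 min compound exposure at 37 °C; DMSO served as basal (EC0) control.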

SMILES | activation
O=C(CSc1nc(Nc2ccc(F)cc2)c2ccccc2n1)c1ccc(F)cc1 | inactive: -10.7%
CCN(C(=O)Cn1cnc2onc(-c3ccc(F)cc3)c2c1=O)c1ccc(OC)cc1 | inactive: 7.62%
Cc1ccc(CNc2ncnc3onc(-c4ccc(F)cc4)c23)cc1 | inactive: 14.6%
Cc1cc(C)c2nc(NC(=O)c3ccc(S(=O)(=O)N4CCc5ccccc54)cc3)sc2c1 | inactive: -8.07%
Cc1oc2ncn(CC(C)C)c(=O)c2c1C(=O)NC(C)c1ccccc1 (stereo not drawn) | inactive: -8.14%
CCOc1ccc(NC(=O)Cn2c(=O)c(CNc3ccc(CC)cc3)cc3cc4c(cc32)OCO4)cc1 | inactive: -29.3%
COc1ccc(-c2nnc(SCC(=O)NC3CCCCC3)nc2-c2ccc(OC)cc2)cc1 | inactive: -26%
COCCn1c(C)cc(O)c(C(c2ccccc2)N2CCN(c3ccccc3)CC2)c1=O (stereo not drawn) | inactive: -16.6%
Cc1cccc(-n2ccnc2SCC(=O)Nc2cccc3ccccc23)c1C | inactive: 3.84%
CCOc1ccc(Nc2nnc(-n3nc(C)cc3C)c3ccccc23)cc1 | inactive: -3%
COc1ccc(C(=O)Nc2ccc3c(c2)CCCN3C(=O)c2cccs2)c(OC)c1 | inactive: -8.58%
COc1cc(OC)c(NC(=O)N2CCCn3nc(C)cc32)cc1Cl | inactive: -4.06%
O=C(Cn1c(=O)n(Cc2ccc3c(c2)OCO3)c(=O)c2oc3ccccc3c21)Nc1ccccc1F | inactive: -12.9%
COc1ccc(N2CC(C(=O)NCc3nnnn3-c3ccc(C)c(C)c3)CC2=O)cc1 (stereo not drawn) | inactive: -7.67%
Cc1c(F)c(N2CCNC(C)C2)cc2c1c(=O)c(C(=O)O)cn2C1CC1 (stereo not drawn) | inactive: -1.78%
COc1ccc(CCNC(=O)C(=O)NCC(c2ccco2)S(=O)(=O)c2ccccc2)cc1 (stereo not drawn) | inactive: -4.41%
COc1ccccc1NC(=O)Cn1c(=O)c(CNc2ccc(C)cc2)cc2cc3c(cc21)OCCO3 | inactive: -19.1%
Cc1cccc(N2C(=O)CSC23C(=O)N(CC(=O)NCc2ccccc2Cl)c2ccccc23)c1 (stereo not drawn) | inactive: -4.59%
COc1ccc(-c2nnc3n2N(C(C)=O)C(c2ccc(Cl)c(Cl)c2)=C(C(C)=O)S3)cc1 | inactive: -9.9%
O=C(Cn1c(SCCOc2ccc(Cl)cc2)nc2ccccc21)N1CCCCC1 | inactive: -24.1%
COc1ccc2cc3cc(C(=O)N4CCN(c5ccccc5F)CC4)oc3nc2c1 | inactive: 0.349%
O=c1[nH]c(=O)n(C2CCCCC2)c(O)c1C1=Nc2ccccc2SC(c2ccc(Cl)cc2)C1 (stereo not drawn) | inactive: -3.16%
COc1cccc(C2=CC(c3cc(Br)ccc3F)n3nnnc3N2)c1 (stereo not drawn) | inactive: -46.2%
CCCOc1ccc(C2CC(=O)Nc3c2c(C)nn3-c2nncc(-c3cccc(OC)c3)n2)cc1OC (stereo not drawn) | inactive: 16.4%
Cc1nc2c(c(C)c1CCC(=O)NCc1ccc(Cl)cc1)c(=O)n(C)c(=O)n2C | inactive: -2.05%
Cc1cccc(NC(=O)c2ccc3c(c2)CCN3S(=O)(=O)c2ccccc2)c1C | inactive: -8.78%
Cc1ccc(NC(=O)Nc2sc3nc4n(c(=O)c3c2C)CCC(C)CC4)c(Cl)c1 (stereo not drawn) | inactive: 0.232%

SMILES | activation
COc1cccc(OC)c1C(=O)Nc1nc2c(s1)CCc1ccccc1-2 | inactive: 1.67%
CC(CNC(=O)CN1C(=O)c2cccnc2Oc2ccc(Cl)cc21)c1ccccc1 (stereo not drawn) | inactive: -11.4%
COc1ccc(-c2noc(-c3ccc(N4CCN(c5ccccc5)CC4)c([N+](=O)[O-])c3)n2)cc1 | inactive: -33.9%
COC(=O)c1ccc(NC(=O)N2CCN(Cc3cc(=O)n4nc(-c5ccc(C)cc5)sc4n3)CC2)cc1 | inactive: -11.8%
CCc1cc(C(=O)NCc2ccccc2)no1 | inactive: 6.81%
COc1cc(NC(=O)CSc2nc(-c3ccco3)cc(C(F)(F)F)n2)cc(OC)c1OC | inactive: 6.6%
Cc1nnc(NC(=O)c2nc(SCc3ccccc3F)ncc2Cl)s1 | inactive: 21.2%
COc1ccccc1NC(=O)CN1C(=O)C2(SCC(=O)N2c2ccc(F)c(F)c2)c2ccccc21 (stereo not drawn) | inactive: -9.95%
O=C(NCc1ccccc1)C(=O)Nc1ccc2nc3n(c(=O)c2c1)CCCCC3 | inactive: -4.8%
Cc1c(C(=O)Nc2cccc(Cl)c2)oc2ccc(S(=O)(=O)N3CCCCCC3)cc12 | inactive: -7.36%
Cc1cc(C)nc(-n2nc(C)c3c2N(C)C(=O)CC3c2ccc(Cl)cc2)n1 (stereo not drawn) | inactive: -7.74%
Cc1ccc(CN2COc3ccc4c(-c5ccccc5)cc(=O)oc4c3C2)cc1 | inactive: -2.53%
Cc1cc(-c2ccc(S(=O)(=O)Nc3ccccc3F)s2)on1 | inactive: -9.03%
CC(NC(=O)Cc1ccc(NC(=O)N2CCSc3ncccc32)cc1)c1ccccc1 (stereo not drawn) | inactive: 10.5%
CCCOc1ccc(C(=O)Nc2ccc(NC(=O)c3ccccc3)c(Br)c2)cc1 | inactive: -14.3%
COc1ccc(C(=O)Nc2cc(C)c(O)c(-c3nc4ccccc4s3)c2)cc1OC | inactive: -0.174%
Cc1ccc(C)c(NC(=O)Cn2c(=O)n(CC3CCCO3)c(=O)c3ccccc32)c1 (stereo not drawn) | inactive: -5.84%
CCN1CCN(c2ncnc3c2cnn3-c2ccc(C)c(C)c2)CC1 | inactive: -6.87%
CC(=O)Nc1ccc(NC(=O)CSc2nc3ccccc3nc2N2CCCCC2)cc1 | inactive: -5.5%
O=C(CN1C(=O)COc2ccc(S(=O)(=O)NC3CCCC3)cc21)Nc1ccc(Cl)cc1 | active: 104%
CCOC(=O)c1[nH]c(C)c(C(=O)NC(CC)Cc2ccccc2)c1C (stereo not drawn) | inactive: -0.446%
O=C(Nc1cccc(-c2cn3cccnc3n2)c1)c1cc(Br)ccc1Cl | active: 82.8%
Cc1ccc2c(c1)N(CC(=O)NCCc1ccc(Cl)cc1)C(=O)c1cccnc1O2 | inactive: -18.1%
Cn1c(-n2cccc2)c(-c2c(-c3ccccc3)[nH]c3c2c(=O)[nH]c(=O)n3C)c(=O)[nH]c1=O | inactive: -13.2%
COc1cccc(CNC(=O)c2ccc3c(c2)nc2n3CCOC2)c1 | inactive: -9.4%
Cc1ccc(-c2nnn3c2nc(NCC(C)c2ccccc2)c2ccccc23)cc1 (stereo not drawn) | inactive: 9.62%
